The record followed here is ChEMBL document CHEMBL4888484, “Replenishing the malaria drug discovery pipeline: Screening and hit evaluation of the MMV Hit Generation Library 1 (HGL1) against asexual blood stage Plasmodium falciparum ,using a nano luciferase reporter read-out” (2022).

Among all 150,000 compounds or so, about 540 (0.36%) showed an effect of 50% or more. Some of the results follow.

The test concerns Plasmodium falciparum. The test can be described thus: Primary screen in NF54 nanoGlo assay, in single point, at 2uM, 72h; a lower Z score goes with more inhibition. It counts as functional, Erythrocyte. As to conditions: timepoint 72 hour.
The % Inhibition is the drop in the measured response relative to a control, in per cent. For `Cc1cccc(CN2CCCn3cccc3[C@H]2c2cccc(Oc3ccccc3)c2)c1`, the “% Inhibition” value was -25% and the Z score amounted to 2.44.
Taken in the same sequence, the figures for `O=C(N[C@H]1CCCCNC1=O)c1coc(COc2ccccc2)n1` were 1% and -0.12.
Taken in the same sequence, the figures for `Cc1cc(C)n(Cc2c(C(=O)NCc3ccc(C)o3)noc2C)n1` were -16% and 1.6.
`c1ccc2[nH]c(C3CCN(c4ncnc5nc[nH]c45)CC3)nc2c1`: the “% Inhibition” value was found to be 3% and the Z score was -0.48.
The corresponding values for `COc1cc(C(=O)Nc2cc(C)cc(-n3nc4ccccc4n3)c2OC)cc(OC)c1OC` are 32% and -3.57.
Taken in the same sequence, the figures for `O=C(CN1CCCCC1=O)NCCCOC1CCCC1` were 5% and -1.03.
The corresponding values for `Cc1cccc(C(NC(=O)[C@H](C)c2ccccc2)C(=O)O)c1C` (some centres undefined) are -10% and 1.25.
On to `O=C(O)C1(n2cccn2)CCN(Cc2ccc3occc3c2)CC1`, for which the “% Inhibition” value is -7% and the Z score stood at 1.09.
`N#Cc1c(C(F)(F)F)cc(O)n2c1nc1ccccc12`: the “% Inhibition” value is 10% and the Z score is -1.32.
The corresponding values for `c1cnc(NCc2cn3c(n2)CCCC3)cn1` are -1% and 0.17.
Taken in the same sequence, the figures for `CCc1oc(C(=O)O)cc1CN1C[C@@H]2[C@@H]3CC[C@@H](C3)[C@]2(C)C1` were 2% and -0.33.
Consider `CCn1c(-c2ccccc2F)nc2cc(C(=O)NCc3cn4cc(C)sc4n3)cc(NC(C)=O)c21`, for which the “% Inhibition” value is -11% and the Z score is 1.5.
Turning to `CC[C@H](NS(=O)(=O)CC(C)C)c1cc(C)ccn1`, the “% Inhibition” value worked out at 7% and the Z score is -0.96.
Taken in the same sequence, the figures for `COC(=O)CCN1C[C@H](OCc2cccc(OC)c2)CN(C(=O)c2ccc(F)cc2Cl)CC1=O` were -2% and 0.31.
Taken in the same sequence, the figures for `COc1ccc(CNc2nc3c(c(C(F)(F)F)n2)CCCCC3)cc1` were -11% and 1.07.
Taken in the same sequence, the figures for `Cc1cc(N(Cc2cccnc2)Cc2ccco2)ncn1` were 1% and -0.15.
As to `CC(C)N(CCOCCO)C(=O)Nc1cc(F)c(F)c(F)c1`, the “% Inhibition” value is on record as -12% and the Z score was determined as 1.99.
The corresponding values for `CNC(=O)[C@@]1(C(F)(F)F)CCN(C(=O)c2cc(OC)no2)C1` are -2% and 0.23.
The corresponding values for `COc1ccccc1Cn1ncc2[nH]c(-c3ccccc3OC(F)F)nc21` are -2% and 0.33.
As to `CCC[C@H]1CC[C@H](C(=O)NCc2cc3n(n2)CCN(S(C)(=O)=O)C3)CC1`, the “% Inhibition” value is on record as -11% and the Z score is on record as 1.09.
With `CC(=O)Nc1ccc2[nH]c(C)c([C@H](Nc3ccccn3)c3ccccn3)c2c1`, the “% Inhibition” value was -3% and the Z score stood at 0.52.
The corresponding values for `O=C(NCC[C@H](O)c1ccccc1)C(=O)Nc1ccon1` are -3% and 0.45.
`Clc1ccc(CN2CCC[C@H](C3OCCO3)C2)cc1`: the “% Inhibition” value stood at 6% and the Z score is -0.85.
Regarding `O=S(=O)(c1cccnc1)N(Cc1ccc(Br)cc1)C1CC1`, the “% Inhibition” value is listed as -8% and the Z score was determined as 1.46.
With `COc1cccc(NC(=O)C2[C@H]3C=C[C@@]4(O3)C(C(=O)NC3CCCCC3C)N(C3CCC(C)CC3)C(=O)[C@@H]24)c1` (some centres undefined), the “% Inhibition” value amounted to 5% and the Z score was -0.76.
Taken in the same sequence, the figures for `Cc1ccc(CCC(=O)N2CCC3(CCC(=O)N(CC(N)=O)C3)CC2)cc1` were 2% and -0.25.
For `Cc1cc(C(=O)N[C@@H](C)C2CC2)c(C)n1Cc1ccncc1`, the “% Inhibition” value amounted to 5% and the Z score was -0.62.
As for `CCOC(=O)CNC(=O)c1cc(C)nc2onc(-c3ccccc3F)c12`, the “% Inhibition” value was found to be 34% and the Z score is listed as -3.85.
Taken in the same sequence, the figures for `CCn1ccnc1CN(C)C(=O)NCc1csc(N2CCOCC2)n1` were -8% and 1.39.
Regarding `Cc1ccc([C@H]2c3cc(OCC(=O)NCCN(C)C)ccc3CCN2C(=O)C2CCCC2)cc1`, the “% Inhibition” value was -2% and the Z score is given as 0.22.
As to `Cc1oc(C)c(C(=O)N2CCN(c3cnccn3)CC2)c1C`, the “% Inhibition” value is given as 5% and the Z score is -0.97.
In the case of `Cc1cccc(NC(=O)c2cnn3c(=O)c4c(n(C)c23)CCNC4)c1`, the “% Inhibition” value is recorded as -1% and the Z score was 0.09.
On to `O=C(c1ccncc1)N1CCc2cc(S(=O)(=O)N3CCCC3)ccc21`, for which the “% Inhibition” value worked out at 3% and the Z score was -0.31.
With `COc1cccc(COc2cccc(NCc3noc(C4CC4)n3)c2C)c1`, the “% Inhibition” value is reported as -13% and the Z score was determined as 1.85.
The corresponding values for `CC(C)CN1CCN(Cc2ccn(C(C)C)n2)CC1=O` are -8% and 0.98.
Taken in the same sequence, the figures for `COc1ccc(NC(=O)c2ccccc2NC(=O)CN(C)C2CCN(C)CC2)cc1` were -6% and 0.96.
The corresponding values for `CC(=O)N(c1nc(CN(Cc2ccccc2)C(C)C)cs1)C1CC1` are -7% and 0.95.
Regarding `Cc1cccc(CC(=O)N2CCC([C@]3(CCc4ccccc4)NC(=O)N(CCN(C)C)C3=O)CC2)c1`, the “% Inhibition” value is on record as -12% and the Z score is 2.19.
Taken in the same sequence, the figures for `CCC(CC)(CC)NCC(=O)Nc1ccc(Br)cn1` were -4% and 0.63.
Taken in the same sequence, the figures for `O=C(Nc1cccs1)Nc1nc2c(s1)C(=O)NCCC2` were -5% and 0.88.
The corresponding values for `CCCn1nccc1C(=O)N(C)Cc1csc(-c2ccccc2)n1` are 3% and -0.72.
In the case of `COCCOc1cc2cc(c1)C(=O)NCCNC(=O)N[C@H]1CCN(C(=O)c3ccc(C)c(C)c3)C[C@@H]1OCc1cccc(c1)O2`, the “% Inhibition” value is given as -1% and the Z score is 0.07.
As for `CC(C)OC(=O)c1ccccc1S(=O)(=O)Oc1ccc(CN(C(=O)c2ccccc2F)C(C)C)cc1`, the “% Inhibition” value is reported as -9% and the Z score is listed as 1.38.
With `O=C(c1cnc(-c2cccnc2)nc1)N1CCOC[C@@H](CO)C1`, the “% Inhibition” value is reported as -14% and the Z score came out at 1.72.
Taken in the same sequence, the figures for `Fc1cccnc1OC1CCN(c2nnc(-c3ccco3)n2C[C@H]2CCCCO2)CC1` were -18% and 2.1.
The corresponding values for `Cc1nonc1OCCN[C@@H](C)C(=O)NC1CCCC1` are -13% and 1.3.
Taken in the same sequence, the figures for `Cn1cc(CNC(=O)N(Cc2ccoc2)C2CC2)nn1` were 9% and -1.03.
`Cc1n[nH]c(C)c1CN(C)C(=O)c1c(CCc2ccccc2)n(Cc2ccncc2)c(C)cc1=O`: the “% Inhibition” value is -6% and the Z score amounted to 0.95.
Taken in the same sequence, the figures for `Cn1nccc1S(=O)(=O)N[C@H]1CCN(c2ccc(Cl)cc2)C1` were -12% and 2.26.
The corresponding values for `O=S(=O)(Nc1ccc(-c2cc3cc(Cl)ccc3[nH]2)cc1)c1cccc(F)c1` are -10% and 0.86.
Taken in the same sequence, the figures for `N#Cc1ccc(N2CCN(C(=O)C(F)F)CC2)cn1` were -13% and 1.3.
Consider `CNS(=O)(=O)C[C@H]1CCCN1C(=O)CC1CC(c2ccccc2)C1` (some centres undefined), for which the “% Inhibition” value is on record as -14% and the Z score turned out to be 1.43.
Turning to `COc1ccc(N2C(=O)N[C@@H]3C[C@]2(C)Oc2ccc(Cl)cc23)c(OC)c1`, the “% Inhibition” value is reported as 0% and the Z score was determined as 0.02.
Taken in the same sequence, the figures for `COc1cccc(CN2CC=C(C(=O)NCc3ccc4c(c3)OCO4)CC2)c1` were -8% and 1.29.
Taken in the same sequence, the figures for `NC(=O)c1cccnc1N1CC[C@@]2(CCCN(CCC3CCCCC3)C2)C1` were 11% and -1.94.
For `O=C(NC1(c2ncon2)CCOCC1)c1ccc(Cl)cc1`, the “% Inhibition” value is -3% and the Z score was determined as 0.31.
As to `O=S(=O)(c1ccc(Cl)cc1)N1CC2CC3C=CC2(C1)O3` (centres undefined), the “% Inhibition” value is recorded as -12% and the Z score was determined as 2.32.
In the case of `Cn1cncc1Cn1ccc(-c2cccc(-c3nccc4occc34)c2)n1`, the “% Inhibition” value is -8% and the Z score was 1.05.
The corresponding values for `Cc1ccc(C(=O)Nc2ccc(C)n(CC(=O)NCc3ccncc3)c2=O)cc1` are -9% and 1.22.
The corresponding values for `Nc1ncc(C(=O)NC2(C3CCCCC3)CC2)s1` are 13% and -1.66.
The corresponding values for `COc1ccc(CC(=O)Nc2ccc3c(c2)C(N2CCN(C(C)C)CC2)=Nc2ccccc2O3)cc1` are -9% and 1.08.
Regarding `Cc1cccc(CN(CCc2c[nH]c3ccccc23)Cc2nc(C(=O)N[C@@H](C)c3ccccc3)co2)c1`, the “% Inhibition” value was -7% and the Z score came to 0.97.
Take `CCc1ccnc(C(=O)N2CC[C@H](c3ncccn3)C2)c1`: the “% Inhibition” value was -10% and the Z score is reported as 1.27.
The corresponding values for `CCC(O)CCNC(c1ccc(OC)c(OC)c1)C(F)(F)F` (centres undefined) are -13% and 1.53.
Consider `Cc1cc2n(n1)C[C@@](C)(C(=O)NCc1ccc(Cl)cc1)N(Cc1ccc(Cl)cc1)C2=O`, for which the “% Inhibition” value was -2% and the Z score is given as 0.36.
The corresponding values for `CCC(C)N(CC(=O)N1CCc2sccc2C1COc1ccc(C)cc1)C(=O)Nc1ccc(C)cc1` (centres undefined) are 8% and -1.36.
The corresponding values for `Cc1ccnc(OCC(=O)NCCc2ccccc2)n1` are 0% and 0.03.
The corresponding values for `CC(=O)N1C[C@H]2CC[C@@H](C1)N(C(=O)c1c(F)ccc(C)c1Cl)C2` are 2% and -0.39.
`O=C(Nc1cn[nH]c1)Nc1ccnn1C1CCCC1`: the “% Inhibition” value came out at 4% and the Z score is -0.7.
As to `C1CN(CC2OCC3(CO2)COC(CN2CCOCC2)OC3)CCO1` (centres undefined), the “% Inhibition” value was 7% and the Z score was -1.17.
Taken in the same sequence, the figures for `CCn1cc(S(=O)(=O)N2CCC3(CCC(=O)N(C(C)C)C3)CC2)cn1` were -5% and 0.59.
Taken in the same sequence, the figures for `CCOC1CC1C(=O)N1CCC(c2nc(-c3ccccc3)no2)CC1` (centres undefined) were 6% and -0.8.
Taken in the same sequence, the figures for `Cc1cccc(-n2ncc3c2CCC[C@@H]3NC2CCOCC2)c1C` were -9% and 1.46.
`O=C(C1CCCC1)N(Cc1ccccc1)c1nc2c(s1)CCCC2`: the “% Inhibition” value is listed as 2% and the Z score is recorded as -0.25.
The corresponding values for `Cc1ccc(NC(=O)N2Cc3nc(C)n(C)c(=O)c3C2)c(F)c1` are -7% and 1.34.
The corresponding values for `CC(C)(C)OC(=O)N1CCC(CCOS(C)(=O)=O)CC1` are 4% and -0.52.
Taken in the same sequence, the figures for `CC1(C#N)CN(C(=O)c2ccc3c(c2)C(C)(C)CO3)C1` were 7% and -0.78.
Regarding `Nc1cc(S(=O)(=O)c2ccc(Cl)cc2)ccc1Cl`, the “% Inhibition” value was 0% and the Z score was -0.02.
The corresponding values for `COCC1(C(=O)NC(c2ccc(F)cc2)[C@H]2C[C@@H](O)C2)CCC1` (some centres undefined) are 0% and -0.04.
Taken in the same sequence, the figures for `CCOC(=O)NCC(=O)Nc1ccc(Br)cc1` were 11% and -1.15.
The corresponding values for `Cc1ccc([C@H](NC2CCN(C)CC2)c2cccnc2)cc1C` are 5% and -0.64.
`CC1OCCC1(O)CNC(=O)c1csnn1` (centres undefined): the “% Inhibition” value is listed as -1% and the Z score was determined as 0.17.
